# Experimental data published in article PMC5892938.
# The other results are listed elsewhere or left out. At the low end of the ranking the order means little.
# Biological target: GST-SBP-SLBP (stem-loop binding protein) (UniProt Q14493)
# Assay: targeted RNA Bind-n-Seq;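 further: DESeq read counts versus GST-SBP nonspecific binding control pulldown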
# Conditions: RBNS binding buffer: 25 mM Tris pH 7.5, 150 mM KCl, 3 mM MgCl2, 0.1% Tween, 0.5 mg/mL BSA, 1 mM DTT; 27 nM protein, 750 pM RNA pool; temperature not stated; high values mean tight binding
row,Sequence,binding signal (log2 fold change)
1,GGUCACGUCUCAAUCAACUCAUCUGAGGGGGGGAAAACCCCUUUACCCUCCACAUCAACAGCUCGCAGUCAAG,-0.277
2,GGUCACGUCUCAAUCAACUCUCAAGAGGGGGGGAAAACCCCUUUACCCUCGUUCUCAACAGCUCGCAGUCAAG,-0.189
3,GGUCACGUCUCAAUCAACUCAUCUCCCAGGGAAAACCCUGGCUUUUUCAACAGCUCGCAGUCAAG,-0.106
4,GGUCACGUCUCAAUCAACUCAUCUCCCAGGGAAAACCCUGGCAUACUCAACAGCUCGCAGUCAAG,0.00656
5,GGUCACGUCUCAAUCAACUCAUUCCCAGGAGUUUACUCCUGUUAACUCAACAGCUCGCAGUCAAG,0.107
6,GGUCACGUCUCAAUCAACUCAUGUCCAGGAGUUUUCUCCUGCUUAUUCAACAGCUCGCAGUCAAG,-0.128
7,GGUCACGUCUCAAUCAACUCUCACGAGGGGGGGAAAACCCCUUUACCCUCUUUCUCAACAGCUCGCAGUCAAG,-0.136
8,GGUCACGUCUCAAUCAACUCAUGUCCAGGAGUUUACUCCUGUUUAUUCAACAGCUCGCAGUCAAG,-0.221
9,GGUCACGUCUCAAUCAACUCAAUUCCCAGGGAAAUCCCUGGCUUUCUCAACAGCUCGCAGUCAAG,-0.144
10,GGUCACGUCUCAAUCAACUCAAUCUCAGGAGUUUCCUCCUGCUAAGUCAACAGCUCGCAGUCAAG,-0.111
11,GGUCACGUCUCAAUCAACUCAACGCCAGGAGUUUCCUCCUGUAUAUUCAACAGCUCGCAGUCAAG,0.0543
12,GGUCACGUCUCAAUCAACUCAUCCUCCAGGGAAAACCCUGGCAUAUUCAACAGCUCGCAGUCAAG,0.384
13,GGUCACGUCUCAAUCAACUCUUCUCCAGGAGUUUCCUCCUGUAAUUUCAACAGCUCGCAGUCAAG,0.109
14,GGUCACGUCUCAAUCAACUCAAUCUCCAGGGAAACCCCUGGCAAUGUCAACAGCUCGCAGUCAAG,0.187
15,GGUCACGUCUCAAUCAACUCAAUUUCAGGAGUUUCCUCCUGUUAAUUCAACAGCUCGCAGUCAAG,-0.0542
16,GGUCACGUCUCAAUCAACUCUUUUCCCAGGGAAAGCCCUGGUUUACUCAACAGCUCGCAGUCAAG,0.106
17,GGUCACGUCUCAAUCAACUCUUCGGAGGGGGGGAAAACCCCUUUACCCUCAUAUUCAACAGCUCGCAGUCAAG,-0.196
18,GGUCACGUCUCAAUCAACUCAUUCUCAGGAGUUUCCUCCUGCAUAUUCAACAGCUCGCAGUCAAG,0.0388
19,GGUCACGUCUCAAUCAACUCAAGUCCAGGAGUUUCCUCCUGUAUAUUCAACAGCUCGCAGUCAAG,0.0721
20,GGUCACGUCUCAAUCAACUCAUCCCCAGGAGUUUACUCCUGCAAUCUCAACAGCUCGCAGUCAAG,-0.112
21,GGUCACGUCUCAAUCAACUCCUCGGAGGGGGGGAAAACCCCUUUACCCUCAAUAUCAACAGCUCGCAGUCAAG,0.186
22,GGUCACGUCUCAAUCAACUCAAUUCCCAGGGAAACCCCUGGUAUAUUCAACAGCUCGCAGUCAAG,0.0194
23,GGUCACGUCUCAAUCAACUCUUUUUCAGGAGUUUUCUCCUGUUUAUUCAACAGCUCGCAGUCAAG,0.153
24,GGUCACGUCUCAAUCAACUCAUUCUCAGGAGUUUGCUCCUGCAAUCUCAACAGCUCGCAGUCAAG,0.0622
25,GGUCACGUCUCAAUCAACUCAUUCCCCAGGGAAAUCCCUGGUUAUCUCAACAGCUCGCAGUCAAG,0.181

row,Sequence,binding signal (log2 fold change)
1,GGUCACGUCUCAAUCAACUCUUUCUCCAGGGAAAACCCUGGCAAUCUCAACAGCUCGCAGUCAAG,0.103
2,GGUCACGUCUCAAUCAACUCUAUCCCAGGAGUUUCCUCCUGUUAACUCAACAGCUCGCAGUCAAG,0.217
3,GGUCACGUCUCAAUCAACUCUUCGCCAGGAGUUUUCUCCUGUAAUCUCAACAGCUCGCAGUCAAG,0.0861
4,GGUCACGUCUCAAUCAACUCACUAGAGGGGGGGAAAACCCCUUUGCCCUCAAACUCAACAGCUCGCAGUCAAG,-0.188
5,GGUCACGUCUCAAUCAACUCUUCCUCCAGGGAAAACCCUGGUUUAUUCAACAGCUCGCAGUCAAG,0.207
6,GGUCACGUCUCAAUCAACUCUAUCCCAGGAGUUUACUCCUGUUUUCUCAACAGCUCGCAGUCAAG,0.399
7,GGUCACGUCUCAAUCAACUCUUCCUCCAGGGAAAUCCCUGGUUAUGUCAACAGCUCGCAGUCAAG,-0.0986
8,GGUCACGUCUCAAUCAACUCAACUCCAGGAGUUUUCUCCUGCUUUCUCAACAGCUCGCAGUCAAG,0.0453
9,GGUCACGUCUCAAUCAACUCAGUCCCAGGAGUUUCCUCCUGUAAAUUCAACAGCUCGCAGUCAAG,0.371
10,GGUCACGUCUCAAUCAACUCUUCUCCAGGAGUUUUCUCCUGCAAUCUCAACAGCUCGCAGUCAAG,-0.0083
11,GGUCACGUCUCAAUCAACUCUUCCGCAGGAGUUUUCUCCUGGAUAUUCAACAGCUCGCAGUCAAG,-0.122
12,GGUCACGUCUCAAUCAACUCUACUCCCAGGGAAAGCCCUGGCUUUCUCAACAGCUCGCAGUCAAG,-0.0203
13,GGUCACGUCUCAAUCAACUCAUCCCCAGGAGUUUUCUCCUGUUAAUUCAACAGCUCGCAGUCAAG,-0.191
14,GGUCACGUCUCAAUCAACUCAUCUCCCAGGGAAACCCCUGGUUUACUCAACAGCUCGCAGUCAAG,-0.0938
15,GGUCACGUCUCAAUCAACUCAACUCCCAGGGAAAUCCCUGGUAUAUUCAACAGCUCGCAGUCAAG,0.00303
16,GGUCACGUCUCAAUCAACUCAACUCCAGGAGUUUCCUCCUGUAAACUCAACAGCUCGCAGUCAAG,0.0607
17,GGUCACGUCUCAAUCAACUCAUUUUCCAGGGAAAUCCCUGGUUUACUCAACAGCUCGCAGUCAAG,-0.0157
18,GGUCACGUCUCAAUCAACUCUCUAGAGGGGGGGAAAACCCCUUUACCCUCCCAUUCAACAGCUCGCAGUCAAG,0.325
19,GGUCACGUCUCAAUCAACUCUUCUUCAGGAGUUUUCUCCUGUAUAUUCAACAGCUCGCAGUCAAG,-0.0402
20,GGUCACGUCUCAAUCAACUCAACUUCCAGGGAAACCCCUGGUAUAUUCAACAGCUCGCAGUCAAG,-0.253
21,GGUCACGUCUCAAUCAACUCUUUUUCCAGGGAAAACCCUGGUUAUCUCAACAGCUCGCAGUCAAG,0.0662
22,GGUCACGUCUCAAUCAACUCUCCAGAGGGGGGGAAAACCCCUUUGCCCUCAACAUCAACAGCUCGCAGUCAAG,0.226
23,GGUCACGUCUCAAUCAACUCAAUUUCCAGGGAAACCCCUGGCUUUCUCAACAGCUCGCAGUCAAG,-0.122
24,GGUCACGUCUCAAUCAACUCAUUCCCCAGGGAAAUCCCUGGCAUAUUCAACAGCUCGCAGUCAAG,0.192
25,GGUCACGUCUCAAUCAACUCAUGUCCAGGAGUUUCCUCCUGUAAUUUCAACAGCUCGCAGUCAAG,0.154

row,Sequence,binding signal (log2 fold change)
1,GGUCACGUCUCAAUCAACUCUAUUUCCAGGGAAACCCCUGGCAUUCUCAACAGCUCGCAGUCAAG,-0.198
2,GGUCACGUCUCAAUCAACUCAUUCCCCAGGGAAAGCCCUGGCUUACUCAACAGCUCGCAGUCAAG,0.105
3,GGUCACGUCUCAAUCAACUCAAUCUCCAGGGAAAGCCCUGGUUUAUUCAACAGCUCGCAGUCAAG,0.016
4,GGUCACGUCUCAAUCAACUCAUUCCCCAGGGAAACCCCUGGCAUAUUCAACAGCUCGCAGUCAAG,0.129
5,GGUCACGUCUCAAUCAACUCCCCAGAGGGGGGGAAAACCCCUUUACCCUCCAAAUCAACAGCUCGCAGUCAAG,-0.0735
6,GGUCACGUCUCAAUCAACUCUUUUUCAGGAGUUUACUCCUGCUUACUCAACAGCUCGCAGUCAAG,-0.0555
7,GGUCACGUCUCAAUCAACUCUUUUCCAGGAGUUUUCUCCUGCAUUCUCAACAGCUCGCAGUCAAG,0.167
8,GGUCACGUCUCAAUCAACUCAUGUCCAGGAGUUUUCUCCUGCAAUCUCAACAGCUCGCAGUCAAG,0.222
9,GGUCACGUCUCAAUCAACUCUUCGCCAGGAGUUUUCUCCUGUUUUUUCAACAGCUCGCAGUCAAG,0.0509
10,GGUCACGUCUCAAUCAACUCCUAAGAGGGGGGGAAAACCCCUUUGCCCUCGAAAUCAACAGCUCGCAGUCAAG,-0.106
11,GGUCACGUCUCAAUCAACUCAUUUCCAGGAGUUUCCUCCUGUAAUUUCAACAGCUCGCAGUCAAG,0.179
12,GGUCACGUCUCAAUCAACUCAUCGCCAGGAGUUUACUCCUGCUAAUUCAACAGCUCGCAGUCAAG,0.301
13,GGUCACGUCUCAAUCAACUCAUCCCCCAGGGAAAACCCUGGUAAAUUCAACAGCUCGCAGUCAAG,-0.00372
14,GGUCACGUCUCAAUCAACUCUUUUUCCAGGGAAAGCCCUGGUUAUUUCAACAGCUCGCAGUCAAG,-0.118
15,GGUCACGUCUCAAUCAACUCAAUCCCAGGAGUUUCCUCCUGCUUUCUCAACAGCUCGCAGUCAAG,-0.0431
16,GGUCACGUCUCAAUCAACUCUAUUUCCAGGGAAAGCCCUGGCUUUUUCAACAGCUCGCAGUCAAG,-0.148
17,GGUCACGUCUCAAUCAACUCAUCGUCAGGAGUUUUCUCCUGCAAUUUCAACAGCUCGCAGUCAAG,0.0436
18,GGUCACGUCUCAAUCAACUCCUAAGAGGGGGGGAAAACCCCUUUGCCCUCAACAUCAACAGCUCGCAGUCAAG,-0.418
19,GGUCACGUCUCAAUCAACUCAUUAGAGGGGGGGAAAACCCCUUUGCCCUCCACUUCAACAGCUCGCAGUCAAG,-0.0298
20,GGUCACGUCUCAAUCAACUCAACUCCAGGAGUUUACUCCUGUAAAUUCAACAGCUCGCAGUCAAG,0.0441
21,GGUCACGUCUCAAUCAACUCAAUGGAGGGGGGGAAAACCCCUUUACCCUCAACAUCAACAGCUCGCAGUCAAG,0.242
22,GGUCACGUCUCAAUCAACUCUAUCCCCAGGGAAAGCCCUGGUAAAUUCAACAGCUCGCAGUCAAG,0.0796
23,GGUCACGUCUCAAUCAACUCAUCCUCCAGGGAAACCCCUGGUUAAUUCAACAGCUCGCAGUCAAG,-0.0994
24,GGUCACGUCUCAAUCAACUCUACUUCCAGGGAAAACCCUGGUUAACUCAACAGCUCGCAGUCAAG,-0.254
